Experimental data from the antibiotic and cytotoxicity screens of Wong et al. (2023).
This is one part of the list.

system: HSkMC (human skeletal muscle cells); experiment: cytotoxicity call (relative viability < 0.9); conditions: 10 µM

Structure (SMILES)	cytotoxicity call
C[C@@H]1CCCCO[C@H](CN(C)S(=O)(=O)c2ccccc2)[C@@H](C)CN([C@@H](C)CO)C(=O)c2cc(NS(C)(=O)=O)ccc2O1	inactive
C[C@@H]1CN([C@@H](C)CO)C(=O)CCCn2nncc2CO[C@H]1CN(C)C(=O)Nc1ccc(C(C)(C)C)cc1	inactive
CC(=O)O[C@@H]1[C@@H](O)C[C@@]2(C)[C@@H](CC[C@@H](C)[C@@]23Cc2c(O)cc4c(c2O3)CN([C@@H](CCC(=O)O)C(=O)O)C4=O)C1(C)C	inactive
CN(C)CCCNC(=O)C[C@@H]1CC[C@@H]2[C@H](COC[C@H](O)CN2S(=O)(=O)c2ccccc2)O1	inactive
Cc1ccnc([C@@H](N)C2CC2)c1	inactive
C[C@@H]1CCCCO[C@H](CN(C)C(=O)Nc2ccc(F)cc2)[C@H](C)CN([C@H](C)CO)C(=O)c2cc(NS(=O)(=O)c3cccs3)ccc2O1	inactive
CC/C(=C\C(=N\O)C(N)=O)[C@@H](C)[N+](=O)[O-]	inactive
CC(=O)N1[C@@H]2c3cccc(=O)n3C[C@H]1[C@H](CO)[C@H]2C(=O)N1CCc2ccccc2C1	inactive
COCC(=O)Nc1ccc2c(c1)C(=O)N(C)C[C@@H](OC)[C@H](C)CN(Cc1ccccc1OC)[C@H](C)CO2	inactive
Cc1cc(-c2ccccc2)oc2cc3ccccc3c1-2	inactive
O=C(C[C@@H]1C[C@@H]2c3cc(NC(=O)NC4CCCC4)ccc3O[C@@H]2[C@@H](CO)O1)NCCN1CCCCC1	inactive

system: S. aureus RN4220; experiment: growth inhibition call (relative growth <= 0.2); conditions: 50 µM

Structure (SMILES)	growth inhibition call
Cc1ccc(S(=O)(=O)Nc2ccc3c(c2)C(=O)N([C@H](C)CO)C[C@@H](C)[C@H](CN(C)C(=O)NC2CCCCC2)OCCCC[C@H](C)O3)cc1	inactive
O=C(Nc1ccc(C(F)(F)F)cc1)Nc1ccc2c(c1)[C@@H]1C[C@H](CC(=O)N3CCc4ccccc4C3)O[C@@H](CO)[C@@H]1O2	inactive
C[C@H](CO)N1C[C@H](C)[C@H](CN(C)Cc2ccc3c(c2)OCO3)Oc2ccc(NC(=O)Nc3cccc4ccccc34)cc2CC1=O	inactive
O=C(O)CCc1nc2ccccc2[nH]1	inactive
C[C@@H]1CN([C@@H](C)CO)C(=O)c2cc(NS(=O)(=O)c3ccc(F)cc3)ccc2O[C@@H]1CN(C)S(=O)(=O)c1ccccc1	inactive
Cc1noc(C)c1NC(=O)N[C@H]1C=C[C@H](CC(=O)N2CCN(C)CC2)O[C@H]1CO	inactive
C[C@@H]1CN([C@H](C)CO)C(=O)c2cc(C#CCN(C)C)cnc2O[C@@H]1CN(C)C(=O)Nc1cccc(F)c1	inactive
C[C@H](CO)N1C[C@H](C)[C@H](CN(C)C(=O)Nc2ccc(F)cc2)Oc2ncc(-c3cccc(C(F)(F)F)c3)cc2C1=O	inactive
C[C@H]1CN([C@@H](C)CO)C(=O)Cc2cc(NS(=O)(=O)c3cccs3)ccc2O[C@@H]1CN(C)S(=O)(=O)c1cn(C)cn1	inactive
C[C@@H]1CCCCO[C@H](CN(C)Cc2ccccc2)[C@@H](C)CN([C@@H](C)CO)C(=O)c2cc(NC(=O)Nc3ccc(F)cc3)ccc2O1	inactive
CC(C)(C)Nc1nc(=O)[nH]c(=O)[nH]1	inactive
COCCNC(=O)C[C@H]1CC[C@H]2[C@@H](COC[C@H](O)CN2C(=O)Nc2ccccc2OC)O1	inactive
COc1ccc(S(=O)(=O)Nc2ccc3c(c2)C(=O)N([C@@H](C)CO)C[C@@H](C)[C@H](CN(C)C(=O)C2CCCCC2)OCCCC[C@H](C)O3)cc1	inactive
O=C(C[C@H]1C[C@@H]2c3cc(NC(=O)Nc4ccc(C(F)(F)F)cc4)ccc3O[C@@H]2[C@@H](CO)O1)NC1CCCCC1	inactive
CC[C@H]1OC(=O)[C@H](C)[C@@H](O[C@H]2C[C@@](C)(OC)[C@@H](O)[C@H](C)O2)[C@H](C)[C@@H](O[C@@H]2O[C@H](C)C[C@H](N(C)C)[C@H]2O)[C@](C)(O)C[C@@H](C)[C@@H]2N[C@@H](COCCOC)O[C@H]([C@H]2C)[C@]1(C)O	active
COc1ccc(NC(=O)Nc2ccc3c(c2)[C@H]2C[C@H](CC(=O)N4CCN(C)CC4)O[C@H](CO)[C@H]2O3)cc1	inactive
COc1ccc([Si](C)(C)[C@H]2[C@H](CCn3cc(CCO)nn3)O[C@@]3(C(=O)N(Cc4cccc(N5C(=O)c6cccc7cccc5c67)c4)c4ccccc43)[C@@H]2C)cc1	inactive
COCC(=O)N1C[C@@H](C)[C@H](OC)CN(C)C(=O)c2ccc(NC(=O)c3ccc(OC)cc3)cc2OC[C@@H]1C	inactive
